The values below come from ChEMBL document CHEMBL1201862, “PubChem BioAssay data set” (2004).

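96-well plates; 48 h exposure; 5 concentrations. Endpoints by linear interpolation between flanking doses. Not reached: highest tested concentration assigned. GI50 = concentration required for 50% inhibition of growth.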 Calls of active or inactive are those of the source. No stated cut-off is given here; in the data, active = GI50 up to about 1.1 µM and inactive = higher. Some results are limits rather than exact numbers.

This test relates to NCI-H322M. Nature of the test: NCI tumour cell line growth inhibition, 48 h.
On to `C[N+](CCCl)(CCCl)Cc1cccc2cccc([N+](=O)[O-])c12`, for which the GI50 was inactive: > 100 µM.
Regarding `Cc1nc(O)c2c3c(sc2n1)CCCC3`, the GI50 was inactive: > 100 µM.
As for `CCOC(=O)N1CCc2cc(OC)c(OC)c3c2c1cc1cc(OC)c(OC)cc13`, the figure is inactive: 7.89 µM.
Take `CCNCCC1(CC)C(=O)NC(=O)NC1=O`: the GI50 is inactive: > 100 µM.
As for `COc1ccc(NC=O)c(C(=O)CCNC(C)=O)c1`, the figure is inactive: > 100 µM.
Next, `CCN(CC)CCOC(c1cc(OC)ccc1OC)c1ccc2n1-c1ccccc1OC2` (stereo unspecified): inactive: 15.2 µM; `FC1CCN(C2(c3cccs3)CCCCC2)CC1`: inactive: > 100 µM; `CCOP(=O)(OCC)c1c(C(=O)OC)cc(=O)[nH]c1-c1ccc(C)cc1`: inactive: 22.2 µM.
As to `COc1cc(/C=N\c2nc(-c3ccc(NS(=O)(=O)c4ccc(Cl)c(OC)c4)cc3)cs2)ccc1O`, the GI50 is inactive: 47.6 µM.
On to `CNC(=S)N/N=C(\C)c1cc(OC)c(OC)cc1O`, for which the GI50 is inactive: > 100 µM.
For the compound `CC(=O)OCC1OC(Nn2c(=O)[nH]c3ccccc3c2=O)C(OC(C)=O)C(OC(C)=O)C1OC(C)=O` (stereo unspecified), the GI50 is inactive: > 100 µM.
For `O=C1c2cccc3cc([N+](=O)[O-])cc(c23)C(=O)N1c1ccc(OCCN2CCCC2)cc1`, the GI50 is inactive: > 100 µM.
As for `C=CCOC(OCC=C)/C(Br)=C/C`, the figure is inactive: > 100 µM; as for `ClCCCCCc1c2nc(c(CCCCCCl)c3ccc([nH]3)c(CCCCCCl)c3nc(c(CCCCCCl)c4ccc1[nH]4)C=C3)C=C2`, inactive: > 100 µM.
As for `C/C(=N\NS(=O)(=O)c1ccc([N+](=O)[O-])cc1)c1ccc[n+]([O-])n1`, the figure is inactive: 4.02 µM; as for `CCOC(=O)c1cc2c3ccn(Cc4ccccc4)c3c3c(C)noc3c2[nH]1`, inactive: > 100 µM; as for `C1=N\CCNCC/N=C\c2ccc(cc2)OCc2cccc(n2)COc2ccc/1cc2`, inactive: > 100 µM.
Next, `CN(c1ccccc1)S(=O)(=O)c1ccc([N+](=O)[O-])cc1`: inactive: > 100 µM.
Take `Cc1cc(C)c2ccc(N3CCNCC3)nc2n1`: the GI50 was inactive: 92 µM.
Next, `O=C1C2=Nc3ccccc3C(O)(C(=O)O)N2c2ccccc21` (stereo unspecified): inactive: 22.2 µM; `C1OC1CO[C@@H]1CO[C@H]2[C@@H]1OC[C@H]2OCC1CO1` (stereo partly specified): inactive: > 100 µM; `Nc1c2ccccc2nc2c1ccc1ncccc12`: inactive: 15.1 µM.
As to `CC1=NC2(CCCCC2)N(Cl)C(=O)C1SC#N` (stereo unspecified), the GI50 is inactive: 18.5 µM.
Take `COC(=O)c1c[nH]cc1CCCCc1c[nH]cc1C(=O)OC`: the GI50 was inactive: > 100 µM.
Consider `COc1c2c(c3ccccc3c1O)C1C=CC2C1` (stereo unspecified), for which the GI50 was inactive: 17 µM.
As for `Cc1cc(C)nc(NS(=O)(=O)c2ccc(Nc3c4ccccc4nc4c(C(=O)N5CCN(CCO)CC5)ccc(Cl)c34)cc2)n1`, the figure is inactive: 77.8 µM; as for `Cc1nn(-c2ccccc2)c2c1C(c1cc3ccccc3nc1Cl)NC(=S)N2` (stereo unspecified), inactive: > 100 µM.
Next, `CC/C(N)=N\NC(=O)OC(C)(C)C`: inactive: > 100 µM; `Cc1cc2c(cc1Cl)SC(c1ccccc1O)NS2(=O)=O` (stereo unspecified): inactive: > 100 µM.
As for `COc1ccc2c(=O)c3c([nH]c2c1)OCC3=O`, the figure is inactive: > 100 µM.
As for `COc1cc(/C=C/c2nc(N)nnc2C)cc(OC)c1OC`, the GI50 is inactive: 26.2 µM.
As for `Clc1ccc(-c2cc(-c3nc4ccccc4[nH]3)no2)cc1`, the figure is inactive: 19.3 µM.
Next, `CC1(C)NC2C(=O)c3c([nH]c4ccccc34)[C@]3(C)CCC1CC23` (stereo partly specified): inactive: > 100 µM; `COC(=O)c1ccccc1C1CN=NC12Cc1c(C)c3c(c(C)c1C2=O)CCC3` (stereo unspecified): inactive: 21.4 µM; `CC(C)(O)[C@@H]1CC[C@@]2(C)CCC[C@H](O)[C@H]2C1`: inactive: > 100 µM.
Consider `CCN1CCC(O)(c2ccc(Oc3ccc(Cl)cc3)cc2)C(C(=O)c2ccc(Oc3ccc(Cl)cc3)cc2)C1` (stereo unspecified), for which the GI50 was inactive: 14.6 µM.
Regarding `CC(C)N(C(=O)C12C3C4C1C1C2C3C41C(=O)N(C(C)C)C(C)C)C(C)C` (stereo unspecified), the GI50 is inactive: > 50 µM.
As to `CC(C)(C)OC(=O)[C@H]1CCC(=S)N1Cc1ccccc1`, the GI50 was inactive: > 100 µM.
Next, `CN1C(=O)N(C)C2(O)c3ccccc3C(=O)C12O` (stereo unspecified): inactive: > 100 µM; `CC(=O)Oc1cc(OC(C)=O)c(OC(C)=O)c2c1CC1C(=O)C3(CCc4ccccc43)C(=O)C1C2` (stereo unspecified): inactive: > 100 µM.
As to `CCOC(=O)/C=C1/Nc2cc(F)c(F)cc2NC1=O`, the GI50 is inactive: > 100 µM.
Next, `Oc1cc(F)cc2cccnc12`: inactive: 3.91 µM.
As for `Cc1[nH]c(=O)nc(N/N=C/c2ccc(O)cc2)c1C(=O)Nc1ccc(Cl)cc1`, the figure is inactive: > 100 µM; as for `O=C(Nc1ccc(Cl)cc1)NS(=O)(=O)c1coc2ccccc2c1=O`, inactive: > 10 µM.
Consider `O=C(C/N=C(\CN(c1ccccc1)c1ccccc1)Oc1c([N+](=O)[O-])cc([N+](=O)[O-])cc1[N+](=O)[O-])N1CCNCC1`, for which the GI50 was inactive: > 100 µM.
As for `Nc1ncnc2c1ncn2[C@@H]1C[C@H](NO)[C@@H](O)[C@H]1O`, the figure is inactive: > 100 µM; as for `Cc1ccc([Se](=C(C(=O)c2ccccc2)C(=O)c2ccccc2)c2ccc(C)cc2)cc1`, inactive: 23 µM.
In the case of `CCCn1cc2c3c(cccc31)C1C=C(C)CN(C)C1C2` (stereo unspecified), the GI50 is inactive: 24.5 µM.
As for `C1=C2SSC3=CC=C(SSc4ccc(s4)SSC4=CC=C(SSC(=C1)S2)S4)S3`, the figure is inactive: > 100 µM.
Turning to `C1=N\c2ccc(cc2)-c2ccc(cc2)/N=C\c2ccc(cc2)OCc2cccc(n2)COc2ccc/1cc2`, the GI50 was inactive: > 100 µM.
Next, `COc1ccc(N2C(=O)C3c4[nH]c5cccc(Cl)c5c4C4CCC(C(C)(C)C)CC4C3C2=O)cc1` (stereo unspecified): inactive: > 100 µM; `CC1=C(C#N)S(=O)(=O)c2c(oc(C)c2C)N1`: inactive: > 100 µM.
Next, `CCC(C)c1c(Cl)nc(Cl)nc1Cl` (stereo unspecified): inactive: 10.6 µM; `CCOC(=O)c1cc(C2CCN(Cc3ccccc3)C2=O)c(C(=O)/C=C(/C)N)[nH]1` (stereo unspecified): inactive: 52.2 µM.
As for `Cc1ccc(-n2cc(-c3ccc(Cl)cc3)c3c(N/N=C4\SCC(=O)N4C)ncnc32)cc1`, the figure is inactive: 6 µM; as for `CCOC(=O)C1Oc2ccc([N+](=O)[O-])cc2C1(C)O` (stereo unspecified), inactive: > 100 µM; as for `N#C/C(=C1/Sc2c(nc[nH]c2=O)N1c1ccccc1)c1nc2ccccc2[nH]1`, inactive: > 100 µM.
Turning to `CC/C=C/c1cc2cc[nH]c2c2c1C(C)C[C@@H]2C` (stereo partly specified), the GI50 was inactive: 47.2 µM.
In the case of `O=C(O)CNC(=O)c1c2ccccc2nc2ccccc12`, the GI50 was inactive: > 100 µM.
Next, `Cc1c(O)c(O)cc[n+]1C1OC(CO)C(O)C1O` (stereo unspecified): inactive: > 100 µM; `C=C(C)C1Cc2c(cc(OC)c3c(=O)c4ccccc4n(C)c23)O1` (stereo unspecified): inactive: > 100 µM.
